Screen size: about 310,000 compounds; about 14,000 (4.5%) showed an effect of 50% or more. Effects have a minus sign here. The list shows a part of the results.
Target: human ether-à-go-go-related gene (hERG) potassium channel (human, UniProt Q12809)
Experiment: primary screen, population patch clamp on CHO cells stably expressing hERG
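Further: peak tail current of the secondary pulse compared with the same well before compound.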

human ether-à-go-go-related gene (hERG) potassium channel, sequence (Q12809 whole entry, looked up): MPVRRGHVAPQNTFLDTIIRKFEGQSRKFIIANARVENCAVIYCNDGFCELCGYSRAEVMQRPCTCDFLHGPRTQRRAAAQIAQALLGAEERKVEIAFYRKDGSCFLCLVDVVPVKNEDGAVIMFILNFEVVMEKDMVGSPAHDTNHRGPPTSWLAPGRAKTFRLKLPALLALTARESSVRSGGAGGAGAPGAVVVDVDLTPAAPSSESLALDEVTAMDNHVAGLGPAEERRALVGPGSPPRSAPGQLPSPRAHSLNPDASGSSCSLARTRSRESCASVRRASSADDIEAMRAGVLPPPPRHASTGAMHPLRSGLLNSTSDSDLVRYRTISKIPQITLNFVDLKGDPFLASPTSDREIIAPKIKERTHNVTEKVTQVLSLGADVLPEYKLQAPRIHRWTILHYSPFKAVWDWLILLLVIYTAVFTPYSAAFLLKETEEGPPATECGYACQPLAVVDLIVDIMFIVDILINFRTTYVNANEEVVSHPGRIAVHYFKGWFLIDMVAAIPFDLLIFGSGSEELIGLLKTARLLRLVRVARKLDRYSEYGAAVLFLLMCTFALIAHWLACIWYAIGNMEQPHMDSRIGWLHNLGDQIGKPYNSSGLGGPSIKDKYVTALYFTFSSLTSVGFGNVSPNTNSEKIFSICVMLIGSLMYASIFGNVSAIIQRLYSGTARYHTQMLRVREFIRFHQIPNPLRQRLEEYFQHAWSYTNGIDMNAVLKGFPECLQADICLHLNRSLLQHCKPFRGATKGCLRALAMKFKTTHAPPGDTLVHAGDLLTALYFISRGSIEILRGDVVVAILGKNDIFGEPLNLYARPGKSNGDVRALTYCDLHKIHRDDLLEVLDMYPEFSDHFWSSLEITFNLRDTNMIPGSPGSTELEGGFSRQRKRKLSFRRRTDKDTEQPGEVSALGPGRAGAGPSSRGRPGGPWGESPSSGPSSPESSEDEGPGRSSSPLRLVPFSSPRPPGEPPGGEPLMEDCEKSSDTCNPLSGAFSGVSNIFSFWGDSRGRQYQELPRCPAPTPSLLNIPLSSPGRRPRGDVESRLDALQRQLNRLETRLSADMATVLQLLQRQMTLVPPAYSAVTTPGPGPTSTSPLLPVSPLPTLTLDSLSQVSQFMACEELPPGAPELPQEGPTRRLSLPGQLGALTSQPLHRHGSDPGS

Structure (SMILES)	hERG current change (%, negative = inhibition) at 10uM
O=[N+]([O-])c1cc2cccnc2c2ncccc12	18.7%
COc1ccccc1NC(=O)CCC(=O)OCc1ccc(Br)cc1	-1.43%
CCc1ccc(C2C(C#N)=C(N)N(N(C)C)C3=C2C(=O)CCC3)cc1 (centres unmarked)	-3.08%
Cc1cccc(OCCOC(=O)Nc2ccccc2)c1	22.7%
CCOC(=O)NC1(Nc2ccc(C)cc2)Oc2ccccc2O1	-6.79%
NC1=NN=C(N2N=C(c3ccco3)CC2(O)C(F)(F)F)n2ncnc2C1 (centres unmarked)	5.62%
CCOc1ccc(N2CC(C(=O)Nc3ccc4c(c3)OCO4)CC2=O)cc1 (centres unmarked)	-15.7%
Cc1c(Cl)cccc1Nc1ncccc1C(=O)OCC(O)CO (centres unmarked)	9.92%
O=C(O)c1ccc(S(=O)(=O)c2ccc3c(c2)C(=O)N(Cc2ccco2)C3=O)cc1	-0.841%
NC(=O)OCC(COC(N)=O)c1ccccc1	22.3%
CCOC(=O)CSCc1cn2cc(Cl)ccc2n1	-11.4%
CCOC(=O)C1CCCN(C(=O)c2cc(-c3ccccc3)nc3ccccc23)C1 (centres unmarked)	-9.9%
Cc1cccn2c(=O)c3cc(C(N)=S)c(=N)n(CCCOC(C)C)c3nc12	-78.2%
COc1cccc(-c2noc(C3CCCN(C(=O)Cc4ccccc4)C3)n2)c1 (centres unmarked)	-30.3%
CSc1nc2sc3c(c2c(=O)n1C1CCCCC1)CCN(C)C3	-1.74%
CCCNC(=S)NC1CC2CCC(C1)N2Cc1ccccc1 (centres unmarked)	-35.7%
CCOC(=O)c1cnn2c(N)c(C#N)nnc12	-2.76%
CN(C)S(=O)(=O)c1ccc(Cl)c(C(=O)NC2CCN(Cc3ccccc3)C2)c1 (centres unmarked)	8.32%
Cc1ccc(NC(=S)NNC(=O)Cn2nc(C(F)F)cc2C(F)F)cc1	12.6%
CCOc1ccc(N2CC(C(=O)NCCc3ccc(F)cc3)CC2=O)cc1 (centres unmarked)	-65.8%
CCn1c(SCC(=O)N2CCCc3ccccc32)nnc1-c1c[nH]c2ccccc12	-23.2%
CCOC(=O)c1c(N)sc(C(O)(C(F)(F)F)C(F)(F)F)c1-c1ccc(OC)cc1OC	7.87%

Structure (SMILES)	hERG current change (%, negative = inhibition) at 10uM
CCc1noc(C)c1C(=O)NCCc1ccccc1	7.24%
S=C(NCc1ccc(Cl)cc1)NC1CCCCC1	-21.8%
Cn1cccc1Cc1nnc(SCC(=O)NCc2ccco2)n1CCc1ccccc1	-19%
Cc1ccccc1CSc1nnc2ccc(-c3ccncc3)nn12	-20.8%
O=C(CCNS(=O)(=O)c1cccc2nsnc12)NCCC1=CCCCC1	2.43%
Cc1cc(C)cc(NC(=O)CN2C(=O)C3CC=CCC3C2=O)c1 (centres unmarked)	4.39%
COc1cccc(CCc2nnc(CCC(=O)NC(C)Cc3cccs3)o2)c1 (centres unmarked)	1.09%
CCOc1ccc(N(C)S(=O)(=O)c2ccc3[nH]cc(C(=O)NCC4CCCO4)c(=O)c3c2)cc1 (centres unmarked)	9.16%
Cc1ccccc1NC(=O)CCn1c(=O)oc2ccccc21	-3.03%
CCOc1ccccc1NC(=O)CSc1nnc(CCC(=O)Nc2ccccc2F)n1C	-12.8%
O=C(c1ccc2ccccc2c1)N1CCN(c2ccc(C(F)(F)F)cn2)CC1	-2%
CN(C(=O)CN1C(=O)C2C3CC(C(Br)C3Br)C2C1=O)C1CCCCC1 (centres unmarked)	-8.93%
COc1ccc(C(=O)NN2CC(O)=C(c3nc4ccccc4n3C)C2=N)cc1OC	-9.66%
COc1cccc(CN(C)CC(=O)NCc2ccc(F)cc2)c1OC	6.98%
CCNc1ccc(S(=O)(=O)NCCN(C)C)cc1[N+](=O)[O-]	-25.9%
O=S(=O)(c1ccc(SCc2ccccc2)nc1)N1CCCC1	-19.2%
CCCn1cc(CN2CCC(n3nccc3NC(=O)C(OC)c3ccccc3)CC2)c(C)n1 (centres unmarked)	-14.3%
COc1ccc2[nH]c(=O)c(CN(Cc3ccco3)C(=O)c3ccccc3)cc2c1	-4.78%
O=C(Cc1ncon1)Nc1ccc(F)c(F)c1F	6.74%
Cc1ccc2oc(C(=O)N3CCN(Cc4ncccc4C)CC3)c(C)c2c1	-78.3%
CC(=O)Nc1ccc(NC(=O)C(C)OC(=O)CCC2CCCC2)cc1 (centres unmarked)	-13.8%
Cc1ccccc1N(C(=O)Cn1nnc(-c2cccs2)n1)C(C(=O)NCCC(C)C)c1ccco1 (centres unmarked)	-5.49%

— article PMC4336329 (PLoS ONE, 2015)
